Hit rate of the full screen: of about 220,000 compounds, about 16,000 (7.3%) were called active. The inconclusive results got no clear call from the source; some entries with a clear call stand among them for comparison. The call rests on the fitted dose curve; in most records, active means well fitted inhibition curve with a large enough effect (not every such curve was filed as active); inconclusive means small, poorly fitted or top-dose-only effect, or another doubt; inactive means no such curve, though single readings can be large or run the other way. Potencies of inconclusive entries are left out as doubtful fits.
Molecular target: Aldehyde dehydrogenase 1A1 (Homo sapiens) (UniProt P00352)
Assay: qHTS Assay for Inhibitors of Aldehyde Dehydrogenase 1 (ALDH1A1)
Conditions: Purified ALDH1A1, NADH fluorescence, propionaldehyde substrate; series mostly up to 75.3 µM
Potency means the concentration at half of the fitted maximal effect; tags describe the fitted curve by direction and shape.

Chain of UniProt P00352 (P00352 whole entry, looked up): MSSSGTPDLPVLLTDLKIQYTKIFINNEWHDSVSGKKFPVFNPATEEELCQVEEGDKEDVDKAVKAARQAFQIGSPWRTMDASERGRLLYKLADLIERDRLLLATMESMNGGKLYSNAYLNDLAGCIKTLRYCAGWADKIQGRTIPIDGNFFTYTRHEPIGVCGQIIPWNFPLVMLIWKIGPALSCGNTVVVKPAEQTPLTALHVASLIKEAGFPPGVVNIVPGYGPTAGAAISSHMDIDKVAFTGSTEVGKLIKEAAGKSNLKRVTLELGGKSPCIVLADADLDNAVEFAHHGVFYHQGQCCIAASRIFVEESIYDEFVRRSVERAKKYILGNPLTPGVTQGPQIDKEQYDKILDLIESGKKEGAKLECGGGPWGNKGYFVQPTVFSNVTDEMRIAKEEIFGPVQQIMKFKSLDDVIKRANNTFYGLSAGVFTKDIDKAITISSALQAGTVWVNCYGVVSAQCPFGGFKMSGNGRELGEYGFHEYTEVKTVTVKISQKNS

Structure (SMILES)	Potency
COc1cccc(/C=C2\SC(=O)N(CCC(=O)NNC(=O)c3ccccc3Cl)C2=O)c1	inconclusive [inhibitor, single point]
Cc1cc(Br)ccc1OCC(=O)N1CCCCCC1	inconclusive [inhibitor, partial curve, poor fit]
CC(C)C(C(=O)NCC1CCCO1)N(Cc1ccco1)C(=O)CNS(=O)(=O)c1ccc(F)cc1 (stereo unspecified)	inactive
CCCC(c1nnnn1Cc1ccco1)N1CCN(c2ccccc2)CC1 (stereo unspecified)	inconclusive [inhibitor, single point]
CCC(C)c1ccc(NC(=O)c2cccnc2)cc1 (stereo unspecified)	inconclusive [inhibitor, single point]
O=C(NCc1ccco1)/C(=C/c1ccco1)NC(=O)c1ccco1	inconclusive [inhibitor, single point]
CN=C1SC(C(=O)Nc2ccccc2Cl)CC(=O)N1c1ccc(OC(F)(F)Cl)cc1 (stereo unspecified)	inactive
Cc1ccc(S(=O)(=O)CCC(=O)OCC(=O)c2c(C)[nH]c3ccccc23)cc1	inconclusive [inhibitor, single point]
Cc1ccc(NC(=O)c2ccc(OC(F)F)cc2)cc1S(=O)(=O)N(C)C	inconclusive [inhibitor, single point]
C=CCNC(=O)CC(=O)N/N=C/c1cccc(Br)c1	inconclusive [inhibitor, single point]
CCOc1ccc(-n2nc3ccc(NC(=O)c4ccc5c(c4)OCCO5)cc3n2)cc1	inconclusive [inhibitor, single point]
COc1ccc(/C(C)=N/Nc2ccc(F)cc2F)c(O)c1	inconclusive [inhibitor, single point]
Cc1[nH]c(=O)[nH]c(=O)c1/C=N/NC(=O)[C@@H](NC(=O)OC(C)(C)C)C(C)C	inactive
O=[N+]([O-])c1ccc(Nc2nc(N/N=C\c3ccc4c(c3)OCO4)nc(N3CCCCC3)n2)cc1	inconclusive [inhibitor, partial curve]
Oc1c(C=NCc2ccccc2)sc2ccccc12	inactive
CN1CCN(C(=S)c2ccc(-c3cccc(Cl)c3Cl)o2)CC1	inconclusive [inhibitor, partial curve]
COc1ccc(-c2csc(N)n2)cc1	inconclusive [inhibitor, single point]
CN(C)CCCNC(=S)Nc1ccc(-c2ccccc2)cc1	inconclusive [inhibitor, full curve, poor fit]
Cc1ncoc1C(=O)N1CCCC(C(=O)c2cccc(C(F)(F)F)c2)C1 (stereo unspecified)	inactive
COc1ccc(NC(=O)CSc2nnc(-c3cccs3)n2-c2ccccc2)cc1	inactive
CCCCNC(c1ccccc1)c1ccncc1 (stereo unspecified)	inconclusive [inhibitor, single point]
CC1C=C[C@@H]2[C@H](C1)C(=O)N(Cc1ccccc1)[C@H]2c1ccccc1Br (stereo partly specified)	inconclusive [inhibitor, single point]
Cc1ccc(N2C(=O)/C(=C/c3ccco3)SC2=S)cc1	inactive

Structure (SMILES)	Potency
CC1(c2ccc(Cl)cc2)NC(=O)N(CC(=O)NC(=O)NCc2ccco2)C1=O (stereo unspecified)	inactive
CCOC(=O)C1CCCN(Cc2cc(Br)ccc2OC)C1 (stereo unspecified)	active: 10 µM
Cc1nc(SCC(=O)N(C)C2CCCCC2)[nH]c(=O)c1Cc1ccccc1	inconclusive [inhibitor, partial curve]
CCOC(=O)c1nnn(-c2nonc2N)c1CSc1ccccn1	inconclusive [inhibitor, single point]
O=C(c1cccnc1)N1CCN(c2ccc3ccccc3n2)CC1	inconclusive [inhibitor, partial curve]
O=C(O)c1ccc(N2CCCCS2(=O)=O)cc1	inactive
COC(=O)COc1ccc(S(=O)(=O)N2CCN(c3ccccc3)CC2)cc1	inactive
COc1ccc(OC)c(/C=N/NC(=O)CC(=O)NCc2ccccc2)c1	inconclusive [inhibitor, full curve]
CN(C)S(=O)(=O)c1cccc(-c2nn(-c3ccccc3)cc2/C=C(/C#N)C(=O)NCc2ccco2)c1	inconclusive [inhibitor, partial curve]
COC(=O)c1c(NC(=O)CSc2ncnc3[nH]ncc23)sc2c1CCC2	active: 14.1 µM
Cc1cc(O)c(-c2ccno2)cc1Cl	inconclusive [inhibitor, partial curve]
COc1nc2ccccc2cc1-c1noc(-c2cccnc2)n1	inconclusive [inhibitor, partial curve]
O=C(NC(=S)Nc1ccc(S(=O)(=O)N2CCCCC2)cc1)c1ccccc1	active: 9.46 µM
Cc1cc(N2C(=O)C(O)=C(C(=O)c3ccco3)C2c2ccc(O)cc2)no1 (stereo unspecified)	inactive
O=C(NNC1CC(=O)N(c2ccc(Cl)cc2)C1=O)c1ccco1 (stereo unspecified)	inactive
CC[C@H]1C2=C3C(CC[C@H]4C(OCc5ccc(F)cc5C(F)(F)F)OC[C@](C)([C@@H]34)N(C(=O)OC(C)(C)C)C2)C(COC)C1COC (stereo partly specified)	inactive
CCCN1C(=O)c2ccc(C(=O)NC3=NCCS3)cc2C1=O	inconclusive [inhibitor, full curve]
Cc1nn(-c2ccccc2)c(C)c1NC(=O)c1ccc(S(=O)(=O)N2CCCC2)cc1	inconclusive [inhibitor, partial curve]
O=C(COc1cccc(Br)c1)N/N=C1\CCSC1	active: 4.47 µM
Cc1c(Br)ccc(NC(=O)COc2ccccc2C(N)=O)c1C	inconclusive [inhibitor, single point]
COC(=O)c1ccccc1NC(=O)c1cc2sccc2n1C	inconclusive [inhibitor, partial curve]
CN(N=O)c1ccc(/C=C\c2ccnc3ccccc23)cc1	inconclusive [inhibitor, single point]
CCN(CC)C(=O)c1sc(NC(=O)c2c(OC)cccc2OC)c(C#N)c1C	inconclusive [inhibitor, single point]
